# Source: PubChem BioAssay AID1508624 (National Center for Advancing Translational Sciences (NCATS), 2021)
# Among all 48,000 compounds or so, about 120 (0.25%) were called active. Not shown: some 4% with an inconclusive outcome. The call rests on the fitted dose curve; in most records, active means well fitted activation curve with a large enough effect; inconclusive means small, poorly fitted or top-dose-only effect, or another doubt; inactive means no such curve, though single readings can be large or run the other way. The list shows a part of the results.
# Experiment: Primary qHTS for Identification of Small Molecule Activators of Huntingtin-Antisense Promoter Activity; further: nearly all actives have a fitted effect of over 55% in size
# Conditions: HEK293 HTT-AS promoter firefly luciferase reporter, 24 h; series mostly up to 57.5 µM; activity change, positive = activation: at the top concentration
# Method in brief: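 Firefly luciferase signal from promoter-reporter HEK293 cells was scaled between vehicle (0%) and zero RLU (-100%). Compounds were tested at final concentrations of up to 57.5 uM over 24 h at 37 degrees C. PTC124 at 50 uM final served as control inhibitor.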
row,Structure (SMILES),"activity change, positive = activation"
1,COc1ccc(OC)c(NC(=O)N2CCC(N3CCN(Cc4ccc(F)cc4)C(=O)C3=O)CC2)c1,inactive: -7.57%
2,COC(=O)c1c(NC(=O)c2cc3nc(-c4ccc(Br)cc4)cc(C(F)(F)F)n3n2)sc2c1CCCC2,inactive: 8.01%
3,COc1ccc(NC(=O)Cn2cc(C(=O)C3CCCCC3)c3ccccc32)cc1,inactive: -17.3%
4,Cc1c(Cl)cccc1NC(=O)C(=O)NCC(c1cccnc1)N1CCN(c2ccccc2)CC1 (configuration not stated),inactive: -26.6%
5,CC(C)Oc1ccc(C(=O)N2CC(=O)Nc3ccc(F)cc3C2c2ccc(F)cc2)cc1 (configuration not stated),inactive: -12.4%
6,CCOc1ccc(CNC(=O)CN2C(=O)C3CCCCN3c3ccc(C(=O)N4CCCC4)cc32)cc1 (configuration not stated),inactive: -7.42%
7,COc1ccccc1CNC(=O)c1cc2cc(C)ccc2n1C,inactive: -31.7%
8,CN(C)c1cccc(C(=O)N2CCC(c3ccncc3)CC2)c1,inactive: -51.6%
9,COc1cc(CNc2ccc3[nH]c(=O)[nH]c3c2)cc(Br)c1OCc1ccc(F)cc1,inactive: -35.3%
10,COCCNc1ncnc2onc(-c3ccc(F)cc3)c12,inactive: -7.15%
11,O=C(O)CCc1ccc(-c2cccs2)n1CC(=O)Nc1ccccc1C(F)(F)F,inactive: -8.96%
12,O=C(CSc1nc(-c2ccccc2)nc2c1CCCC2)c1ccc(Cl)cc1,inactive: -1.67%
13,CN1CCN2c3ncccc3Cc3ccccc3C2C1 (configuration not stated),inactive: -10.7%
14,COc1ccc(Cn2ccc3nc(C)c(C(=O)N4CCN(c5cc(C)ccc5C)CC4)cc3c2=O)cc1,inactive: -26.2%
15,CCc1cccc(C)c1NC(=O)C(CC)n1ncn2c(cc3cc(C)ccc32)c1=O (configuration not stated),inactive: -3.57%
16,CCOc1ccc(CNC(=O)c2cnc3sc(N4CCCCCC4)nn3c2=O)cc1OC,inactive: 2.39%
17,Cc1ccc(S(=O)(=O)c2nc(S(=O)(=O)c3ccc(C)cc3)c(NC(C)C)s2)cc1,inactive: -1.85%
18,Cc1ccc(C)c(NC(=O)Cn2c(=O)n(Cc3ccc4c(c3)OCO4)c(=O)c3ccc(C(=O)NC4CCCCC4)cc32)c1,inactive: -13.6%
19,CCN(CC)c1ccc(NC(=O)c2cc3c(=O)n4cccc(C)c4nc3n2C)c(C)c1,inactive: -1.76%
20,Cc1cc(S(=O)(=O)NCC(c2ccc(N(C)C)cc2)N2CCOCC2)ccc1F (configuration not stated),inactive: -12.5%
21,O=C(CSC1=Nc2ccccc2N=C(c2ccc(F)cc2)C1)NCc1ccc(Cl)cc1,inactive: -29.6%
22,CCn1nc(C)c2c(-c3ccccc3)cc(=O)n(C(C)C(=O)NCc3ccc(C)cc3)c21 (configuration not stated),inactive: -30.1%
23,CN(C(=O)CN(CCO)CC(=O)N(C)C(C)(C)Cc1ccccc1)C(C)(C)Cc1ccccc1,inactive: -25.2%

row,Structure (SMILES),"activity change, positive = activation"
1,CCCCCNC(=O)CCn1c(=O)[nH]c2ccccc2c1=O,inactive: -12%
2,COc1ccc(/C=C/c2nc3ccccc3c(=O)n2-c2cccc(C(F)(F)F)c2)cc1,inactive: -19%
3,Cc1ccc(CN(C(=O)COc2ccc(Cl)cc2Cl)C2CCS(=O)(=O)C2)o1 (configuration not stated),inactive: -16.7%
4,Cc1[nH]c(=O)[nH]c(=O)c1S(=O)(=O)N1CCN(c2cccc(Cl)c2)CC1,inactive: -3.67%
5,CN(C)S(=O)(=O)c1ccc2c(c1)C(=Cc1cc3c([nH]1)CCCC3)C(=O)N2,inactive: -37%
6,COc1ccc(Cl)cc1NC(=O)N1CCC(CN2CCCCCC2)CC1,inactive: -2.14%
7,CCc1ccccc1NC(=O)C(C)n1nc(-c2ccc(C)c(C)c2)ccc1=O (configuration not stated),inactive: -23.2%
8,Cc1cccc(Cn2cc(C(=O)Nc3ccc(S(N)(=O)=O)cc3)ccc2=O)c1,inactive: -3.89%
9,COc1ccc(CNC(=O)CN2C(=O)CSc3ccc(S(=O)(=O)N4CCCC4)cc32)cc1,inactive: -8.21%
10,CCCCNC(=O)CN1C(=O)COc2ccc(S(=O)(=O)N3CCCC3)cc21,inactive: -4.2%
11,CSc1cccc(NC(=O)Cn2cnc(S(=O)(=O)N3CCCC3)c2)c1,inactive: -8.73%
12,CC1=C(C(=O)OCC2CCCCC2)C(c2ccc(Cl)cc2Cl)CC(=O)N1 (configuration not stated),inactive: -33.4%
13,O=C(Nc1ccccc1OCc1cc(=O)n2ccccc2n1)c1ccccc1F,inactive: 4.12%
14,CCCn1c2ccccc2c2cnn(CC(=O)NCc3cc(OC)ccc3OC)c(=O)c21,inactive: -8.79%
15,COc1ccc(CNC(=O)C(=O)NCC(c2ccco2)S(=O)(=O)c2ccc(C)cc2)cc1 (configuration not stated),inactive: -19.5%
16,COc1cc2nc(Nc3ccc(F)cc3)nc(N)c2cc1OC,inactive: -1.18%
17,CCOC(=O)c1cccc(NC(=O)C(Cc2ccccc2)NS(=O)(=O)c2cccc3nsnc23)c1 (configuration not stated),inactive: -32.5%
18,COc1ccc(NC(=O)CN(C)S(=O)(=O)c2cccc3nsnc23)cc1,inactive: 8.83%
19,COC(=O)N/N=C/c1c[n+]([O-])c2ccccc2[n+]1[O-],inactive: -1.74%
20,COc1ccc(N(C(=O)COc2ccccc2OC)S(=O)(=O)c2ccc(Cl)cc2)cc1,inactive: -30%
21,Cc1noc(C)c1S(=O)(=O)N1CCCC(C(=O)Nc2ccc(C(C)C)cc2)C1 (configuration not stated),inactive: -4.42%
22,CCc1ccccc1NC(=O)Nc1cc(C(=O)NCc2ccc(OC)cc2)ccc1N1CCCC1,inactive: 2.74%
23,COc1cc(NS(=O)(=O)c2ccc(N)cc2)ncn1,inactive: -8.28%

row,Structure (SMILES),"activity change, positive = activation"
1,CCOc1ccc(CCNC(=O)C2CCC(CNS(=O)(=O)c3ccc(Cl)cc3)CC2)cc1OCC (configuration not stated),inactive: -30.2%
2,COc1cccc(-n2cc(C(=O)Nc3cc(C)c(Cl)cc3OC)c3ccccc3c2=O)c1,inactive: -23.7%
3,CCOc1ccc(CNC(=O)C2CCN(c3nn4c(=O)cc(C)nc4s3)CC2)cc1,inactive: -16.5%
4,CO[C@H]1C=CO[C@@]2(C)Oc3c(C)c(O)c4c(O)c(c(C=NN5CCN(C)CC5)c(O)c4c3C2=O)NC(=O)C(C)=CC=C[C@H](C)[C@H](O)[C@@H](C)[C@@H](O)[C@@H](C)[C@H](OC(C)=O)[C@H]1C,"inactive: -6.65% [at 19.1 µM, percent change from vehicle, -100% = no light]"
5,CC1(C)O[C@@H]2C[C@H]3[C@@H]4C[C@H](F)C5=CC(=O)C=C[C@]5(C)[C@@]4(F)[C@@H](O)C[C@]3(C)[C@]2(C(=O)CO)O1,inactive: -6.46%
6,CCOCCCNC(=O)c1cc2c(=O)[nH]c3ccccc3c2n1C,inactive: 0.166%
7,Cc1ccc(C)c(CN2C(=O)CSc3ccc(C(=O)NCCc4ccc(Cl)cc4)cc32)c1,inactive: -12.9%
8,Clc1ccc(CNc2cc(-c3ccccc3)nc3nncn23)cc1,inactive: -34.9%
9,O=C(Nc1cccc(C(F)(F)F)c1)Nc1nnc(N2CCCCC2)s1,inactive: 22.3%
10,N#Cc1c(Nc2cccc(F)c2)sc(C(=O)c2ccc(Cl)cc2)c1N,inactive: 3.99%
11,CCN(c1ccccc1)S(=O)(=O)c1ccc2[nH]cc(C(=O)NCc3ccc(C)cc3)c(=O)c2c1,inactive: 0.741%
12,Cc1cc(C)nc(NS(=O)(=O)c2ccc(N)cc2)n1,inactive: -3.85%
13,Cc1c(-c2ccc(Cl)cc2)c(=O)oc2c(CN3CCCC3)c(O)ccc12,inactive: -19.6%
14,COc1ccc(N2CC(NC(=O)c3ccc(OC(C)C)cc3)CC2=O)cc1 (configuration not stated),inactive: -2.63%
15,COc1ccccc1CNC(=O)CN1C(=O)CCn2nc(-c3ccccc3)cc21,inactive: -20.9%
16,COc1ccc(-c2nc3sc(CCNS(=O)(=O)c4ccc(F)c(C)c4)c(C)n3n2)cc1,inactive: -18%
17,Cc1ccc(OCC(=O)Nc2ccc3nc(Nc4cccc(Cl)c4)cc(C)c3c2)cc1,inactive: -4.09%
18,CCOc1ccc(S(=O)(=O)NCCc2sc3nc(-c4ccc(C)cc4)nn3c2C)cc1,inactive: -27.1%
19,Cc1cc(C)cc(-n2ccn(Cc3ccc(F)cc3)c(=O)c2=O)c1,inactive: -12.9%
20,COc1cc([C@@H]2c3cc4c(cc3[C@@H](O[C@@H]3O[C@@H]5CO[C@@H](C)O[C@@H]5[C@H](O)[C@@H]3O)[C@H]3COC(=O)[C@H]23)OCO4)cc(OC)c1O,inactive: -38.3%
21,CCCn1c(CCC(=O)Nc2ccccc2OC)nc2cccnc21,inactive: 5.07%
22,COc1ccc2oc(-c3cccc(NC(=O)c4sc5c([N+](=O)[O-])cccc5c4Cl)c3)nc2c1,inactive: -14.8%
23,O=c1c2sc3ccccc3c2n(Cc2cccc(C(F)(F)F)c2)c(=O)n1Cc1ccc(F)cc1,inactive: -10.8%

row,Structure (SMILES),"activity change, positive = activation"
1,COc1ccc(NC(=O)CC2C(=O)N(c3cccc(OC)c3)C(=O)N2Cc2ccc3c(c2)OCO3)cc1 (configuration not stated),inactive: 0%
2,COc1cccc2c1C(=O)c1c(O)c3c(c(O)c1C2=O)C[C@@](O)(C(=O)CO)C[C@@H]3O[C@H]1C[C@H](N)[C@H](O[C@@H]2CCCCO2)[C@H](C)O1,inactive: -33.8%
3,CCCCOC(=O)c1ccc(Nc2nnc(-n3nc(C)cc3C)c3ccccc23)cc1,inactive: -22.8%
4,Cc1nnc2c3ccccc3nc(Nc3cccc(O)c3)n12,inactive: -5.73%
5,CCOC(=O)c1ccc(NC(=O)c2nc(SCc3ccccc3F)ncc2Cl)cc1,inactive: -31.3%
6,COc1ccc(-c2noc(CSc3nc(N)cc(=O)[nH]3)n2)cc1OC,inactive: -35.1%
7,O=C(NC1CC(=O)N(c2ccc(Cl)cc2)C1)c1ccc(S(=O)(=O)N2CCOCC2)cc1 (configuration not stated),inactive: -28.2%
8,COc1cc(C2C(C(=O)Nc3ccccc3)=C(C)Nc3nnnn32)cc(OC)c1OC (configuration not stated),inactive: -14.9%
9,COc1ccc(-c2noc(CN(C(=O)c3cc(OC)c(OC)cc3OC)C(C)C)n2)cc1,inactive: -22.1%
10,CCOc1ccc2nc(N3CCCC(C(=O)NCc4ccccc4OC)C3)sc2c1 (configuration not stated),inactive: 20.7%
11,Cc1ccc(Cl)cc1NC(=O)C1CCN(c2nc3ccccc3n3cccc23)CC1,inactive: -14%
12,CCCn1c2ccccc2c2cnn(CC(=O)NCCc3ccc(C)cc3)c(=O)c21,inactive: -16.4%
13,CCOc1ccc(S(=O)(=O)Nc2cc(Cl)ccc2OC)c2cccnc12,inactive: -27.6%
14,Cc1nc(C(=O)NCC(=O)O)c(O)c2ccc(Oc3ccccc3)cc12,inactive: 3.05%
15,Cc1ccc(/C=C/c2onc(C)c2S(=O)(=O)N2CCC(C(=O)Nc3cc(F)ccc3F)CC2)cc1,inactive: -34.6%
16,CC(=O)Nc1ccn(C2COC(COC(=O)c3ccccc3)O2)c(=O)n1 (configuration not stated),inactive: -17.8%
17,COCCn1c(=O)[nH]c2cc(C(=O)Nc3cccc(C(C)=O)c3)ccc2c1=O,inactive: -15.1%
18,COc1ccc(Nc2oc(/C=C/c3ccc(OC)c(OC)c3)nc2C#N)cc1,inactive: -10.3%
19,Cc1ccc(CN2CCCn3nc(C(=O)NCC(C)c4ccccc4)cc3C2=O)cc1 (configuration not stated),inactive: -17.3%
20,CCc1nn(CC(=O)NCCCOC)c(=O)c2cc3ccccc3n12,inactive: -4.3%
21,Cc1cc(C)c2oc(C(=O)Nc3ccc(S(=O)(=O)Nc4nccc(C)n4)cc3)cc(=O)c2c1,inactive: -3.41%
22,Cc1ccc(NC(=O)c2c(NC(=O)c3ccccc3)sc3c2CCC3)cc1,inactive: 10.3%
23,CC1CCc2c(sc(NC(=O)c3cc(-c4ccc(F)cc4)on3)c2C(N)=O)C1 (configuration not stated),inactive: 1.2%
